Residue numbers refer to the chain shown, from its start. Where two headings read alike, the source gives them in different places.
T1: insulin degrading enzyme (IDE) (Rattus norvegicus, UniProt P35559)
T1 sequence (P35559 42-1019 limits assumed): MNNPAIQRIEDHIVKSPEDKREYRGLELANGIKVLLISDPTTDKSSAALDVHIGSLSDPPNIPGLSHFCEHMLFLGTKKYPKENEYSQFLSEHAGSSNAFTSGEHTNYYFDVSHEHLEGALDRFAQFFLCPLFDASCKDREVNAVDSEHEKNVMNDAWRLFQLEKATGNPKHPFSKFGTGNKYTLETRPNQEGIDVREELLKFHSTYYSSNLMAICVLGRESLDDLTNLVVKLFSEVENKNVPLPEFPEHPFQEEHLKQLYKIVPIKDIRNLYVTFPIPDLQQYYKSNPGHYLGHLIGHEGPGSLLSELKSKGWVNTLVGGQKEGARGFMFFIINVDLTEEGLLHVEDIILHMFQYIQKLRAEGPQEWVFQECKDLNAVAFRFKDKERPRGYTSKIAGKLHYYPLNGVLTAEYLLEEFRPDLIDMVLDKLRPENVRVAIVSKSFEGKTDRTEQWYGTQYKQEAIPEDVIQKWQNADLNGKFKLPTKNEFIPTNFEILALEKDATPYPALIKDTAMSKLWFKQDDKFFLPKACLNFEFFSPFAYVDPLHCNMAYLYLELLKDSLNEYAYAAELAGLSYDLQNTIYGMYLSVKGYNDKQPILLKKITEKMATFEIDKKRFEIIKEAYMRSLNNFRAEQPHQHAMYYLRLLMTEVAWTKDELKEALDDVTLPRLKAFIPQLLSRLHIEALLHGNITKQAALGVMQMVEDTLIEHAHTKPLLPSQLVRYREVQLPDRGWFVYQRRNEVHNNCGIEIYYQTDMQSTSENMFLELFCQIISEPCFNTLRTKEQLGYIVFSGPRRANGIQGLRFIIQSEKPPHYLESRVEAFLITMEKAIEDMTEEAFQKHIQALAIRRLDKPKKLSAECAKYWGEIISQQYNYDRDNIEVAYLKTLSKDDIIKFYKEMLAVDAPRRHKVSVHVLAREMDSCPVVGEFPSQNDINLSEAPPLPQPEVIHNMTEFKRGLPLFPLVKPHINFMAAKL

B1: TPP-10992: compound 9 IgG4, ANP engrafted in CDRH1; HC SEQ ID NO 76, LC SEQ ID NO 66 (antibody, listed as Homo sapiens)
heavy: EVQLLESGGGLVQPGGSLRLSCAASGFTFGSGSGSGSGSGSPDGGSGGSLRRSSCFGGRMDRIGAQSGLGCNSFRYGSYGSGSGSGSGSGMSWVRQAPGKGLEWVSAISGSGGSTYYADSVKGRFTISRDNSKNTLYLQMNSLRAEDTAVYYCAKLTGAEYFQHWGQGTLVTVSSASTKGPSVFPLAPCSRSTSESTAALGCLVKDYFPEPVTVSWNSGALTSGVHTFPAVLQSSGLYSLSSVVTVPSSSLGTKTYTCNVDHKPSNTKVDKRV[in this place human IgG4 Fc with S228P (EU numbers)]
light: QSVLTQPPSVSGAPGQRVTISCTGSSSNIGAGYDVHWYQQLPGTAPKLLIYGNSNRPSGVPDRFSGSKSGTSASLAITGLQAEDEADYYCQSYDSSLSGVVFGGGTKLTVLGQPKAAPSVTLFPPSSEELQANKATLVCLISDFYPGAVTVAWKADSSPVKAGVETTTPSKQSNNKYAASSYLSLTPEQWKSHRSYSCQVTHEGSTVEKTVAPTECS
modifications: NP engrafted HC
B2: TPP-12897: CNP engrafted antibody based on TPP-12377, LC_S98D; HC SEQ ID NO 445, LC SEQ ID NO 447 (antibody, listed as Homo sapiens)
heavy: EVQLLESGGGLVQPGGSLRLSCAASGFTFSSYAMSWVRQAPGKGLEWVSAISGSGGSTYYADSVKGRFTISRDNSKNTLYLQMNSLRAEDTAVYYCTSVHQETKKYQSSPYKGANKKGLSKGCFGLKLDRIGSMSGLGCGSGGSGSYSYTYNYEWHVDVWGQGTLVTVSS[in this place human IgG1 constant region]
light: B1 light with S98D
modifications: NP engrafted HC

How the values were obtained:
[1] = rat, in vivo, iv, 5 mg/kg
Protocol: Pharmacokinetic parameters of TPP-10992 (SEQ ID NO 76 and SEQ ID NO 66) and TPP-5661 (SEQ ID NO 67 and SEQ ID NO 66) were determined after intravenous administration of 5 mg/kg to male Wistar rats (n=3). TPP-10992 and TPP-5661 were given as a bolus injection via the tail vein. Blood samples were collected from the jugular vein via previously implanted catheters in time intervals up to 14 days (336 hours). Generated EDTA-plasma was stored at −20° C. until further analysis.
The quantification of TPP-10992 and TPP-5661 in plasma samples was performed employing an anti-human IgG ELISA (enzyme-linked immunosorbent assay) format. Pharmacokinetic parameters were calculated from plasma concentration time profiles using non-compartmental data analysis.

[2] = biological target: T2, neutral endopeptidase (NEP) (Homo sapiens, UniProt P08473); experiment: Sensitivity towards proteolytic degradation by neutral endopeptidase (NEP); type: in vitro ADME; details: 4 hours incubation with 0.6 μg/ml NEP at 37° C., then activity on the rat receptor cell line
T2 construct: purchased R&D Systems 1182-ZNC

[3] = test system: spontaneously hypertensive rats; experiment: Blood pressure by radiotelemetry in conscious spontaneously hypertensive rats; type: in vivo, rat; details: 30 mg/kg intraperitoneally
Protocol: Blood pressure and heart rate were monitored in freely moving conscious animals by radiotelemetry (Data Sciences International). Female spontaneously hypertensive rats (SHR/N Crl BR, Charles River) with a body weight of 210-300 g were used for these studies. All animals were housed in individual cages at 22-24° C. ambient temperature and maintained on a 12-hour light/dark cycle with free access to standard laboratory rat chow and water ad libitum. Telemeter (HD-10, DSI) implantation was performed a minimum of 14 days before animals were used for blood pressure measurements. Surgery was performed under aseptic conditions. After shaving the abdominal wall, a midline abdominal incision was made, and the fluid-filled sensor catheter was inserted upstream into the exposed descending aorta between the iliac bifurcation and the renal arteries. According to the DSI guidelines the tip of the telemetric catheter was located caudal to the renal arteries and secured by tissue adhesive. The transmitter body was affixed to the inner peritoneal wall before closure of the abdomen. For postsurgical protection against infections and pain a single dosage of an antibiotic (Oxytetracyclin® 10%, 60 mg/kg s.c., 0.06 ml/100 g body weight, Beta-Pharma GmbH & Co, Germany) and analgesic were injected (Rimadyl®, 4 mg/kg s.c., Pfizer, Germany). Telemetric data acquisition was performed by DSI software was predefined to sample hemodynamic data for 10 seconds repeated every 5 minutes. Data collection was started at least 2 hours before drug administration and finished after completion of measurement cycles. Data are expressed as % of basal values±SEM of at least 4 animals per group. The basal value for each animal was calculated as the average of the values measured in two hours prior to substance application (7:00-9:00 AM). Data are then expressed as averages every half hour, starting 15 minutes post application. All animals were treated with a single intraperitoneal (ip) application of test substances dissolved in phosphate buffered saline (PBS). Drug administration took place at 9:00 AM (0 hours).

beagle dogs = experiment: Hemodynamics in conscious telemetered beagle dogs; type: in vivo, dog
Protocol: The effects of TPP-10992 on cardiovascular and ECG parameters after single subcutaneous administration were assessed in a primary pharmacodynamic study in conscious telemetered beagle dogs.
Telemetry devices (DSI™, USA) were surgically implanted to measure blood pressure as well as heart rate, followed by a recovery period to allow wound closure. On the day of the study, telemetry sensors were activated for continuous hemodynamic measurements. The transmitted signals were collected by telemetry receivers located in the animal facility. All collected data were processed by a data acquisition program and averaged over a predefined period of 12 h. As vehicle for TPP-10992 NaCl (0.9%) was used and doses of 0.1 mg/kg, 0.3 mg/kg and 1.0 mg/kg bodyweight were applied via subcutaneous injection.

[4] = biological target: T1, insulin degrading enzyme (IDE); experiment: Sensitivity towards proteolytic degradation by insulin degrading enzyme (IDE); details: 4 hours incubation with 0.6 μg/ml IDE at 37° C., then activity on the rat receptor cell line
[5] = test system: PE-contracted aortic rings; experiment: Vasorelaxation of phenylephrine-contracted isolated rat aortic rings
Protocol: All experiments were conducted in accordance with institutional guidelines and approved by the local committee on animal experiments. Male Sprague-Dawley rats (weighing 250-300 g) were anesthetized with pentobarbital sodium (40 mg/kg i.p.), killed by decapitation, and exsanguinated. The thoracic aorta was excised and placed in ice-cold Krebs buffer of the following composition: 130 mM NaCl, 14.9 mM NaHCO3, 5.5 mM dextrose, 4.7 mM KCl, 1.18 mM KH2PO4, 1.17 mM MgSO47H2O, and 1.6 mM CaCl22H2O. The vessel was pinned in a Sylgard Petri dish filled with chilled Krebs' solution, cleaned of fat and connective tissue, and cut into ring segments of approximately 3 to 4 mm in length. […] Changes in isometric force were recorded using a PowerLab data acquisition system (software Lab Chart 7.0)
After the equilibration period, aortic rings were challenged with 80 mM KCl to check tissue viability. Next, the endothelial integrity of the preparations was determined by verifying the responsiveness to acetylcholine (ACh, 1 μM) in vessels pre-contracted with Phenylephrine (PE, 1 μM). After wash-out and a period of equilibration, Phenylephrine (PE, 1 μM) was used to induce contraction, thereafter natriuretic peptides and natriuretic peptide engrafted IgGs were evaluated for vasorelaxation.

[6] = Pharmacokinetics after intraperitoneal administration in mice (anti-human IgG ELISA); type: in vivo, mouse; details: intraperitoneal administration of 5 mg/kg
Protocol: Pharmacokinetic parameters of TPP-12897 were determined after intraperitoneal administration to female Balb/c mice (n=3). Blood samples were collected from 15 minutes up to 72 hours post application. Generated EDTA-plasma was stored at −20° C. until further analysis. The quantification of TPP-12897 in plasma samples was performed by an anti-human IgG (Immunoglobulin G) ELISA format.
Pharmacokinetic parameters were calculated from plasma concentration time profiles using non-compartmental data analysis.

T2 sequence (P08473 52-750 limits assumed): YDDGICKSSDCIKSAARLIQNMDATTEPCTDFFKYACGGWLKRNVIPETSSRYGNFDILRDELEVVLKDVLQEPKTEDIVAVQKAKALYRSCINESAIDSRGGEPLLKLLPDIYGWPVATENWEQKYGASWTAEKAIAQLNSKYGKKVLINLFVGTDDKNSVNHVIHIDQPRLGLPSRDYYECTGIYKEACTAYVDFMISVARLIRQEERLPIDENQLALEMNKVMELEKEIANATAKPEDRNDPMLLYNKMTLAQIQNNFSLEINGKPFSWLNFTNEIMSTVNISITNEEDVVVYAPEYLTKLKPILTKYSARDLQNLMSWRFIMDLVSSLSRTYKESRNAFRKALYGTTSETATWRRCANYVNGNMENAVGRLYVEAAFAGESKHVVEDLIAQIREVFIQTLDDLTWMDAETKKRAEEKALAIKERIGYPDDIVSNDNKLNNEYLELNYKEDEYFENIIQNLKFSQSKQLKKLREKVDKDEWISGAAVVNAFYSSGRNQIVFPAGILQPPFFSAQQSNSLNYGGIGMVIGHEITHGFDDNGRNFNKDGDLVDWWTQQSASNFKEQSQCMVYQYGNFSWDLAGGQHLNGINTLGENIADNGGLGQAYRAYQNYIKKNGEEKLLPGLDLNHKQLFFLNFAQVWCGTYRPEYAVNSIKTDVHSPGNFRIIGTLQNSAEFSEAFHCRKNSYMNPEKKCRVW

Potency (log EC50 values), vasodilation ([5]; endothelium-intact rat aortic rings contracted by phenylephrine (1 μM), 0.0001-10 μM)	Molecule	Mean clearance (CL) [1]	terminal half-life (t1/2) [1]	sensitivity towards proteolytic degradation by NEP [2]	duration of effect on MAP [3]	reduction in mean arterial blood pressure (MAP) [3]	time of maximum effect on MAP post application [3]	reduction in blood pressure compared to placebo (beagle dogs; healthy beagle dogs, 1.0 mg/kg s.c.)	reduction in blood pressure (beagle dogs; healthy beagle dogs, 0.1, 0.3 and 1.0 mg/kg single subcutaneous)	effects on heart rate (beagle dogs; healthy beagle dogs, 0.1-1.0 mg/kg s.c.)	duration of reduction in blood pressure (beagle dogs; healthy beagle dogs, single subcutaneous)	sensitivity towards proteolytic degradation by IDE [4]	vasodilation in PE-contracted aortic rings ([5]; rat aortic rings, phenylephrine 1 μM)	Mean area under the curve (AUC) [6]	terminal half-life (t1/2) [6]
−6.7	B1	6.48 mL/day/kg	184 h	high resistance	greater than 6 days	approximately 20%	48 h	significant	dose-dependent and long-lasting	No effects	> 5 days	high resistance	dose-dependent vasodilation		
	B2			high resistance								high resistance		7705 µg·h/mL	194 h

Source: patent US12390508B2, “Brain natriuretic peptide engrafted antibodies” (Boehringer Ingelheim International GmbH, priority 2018, dated 2025)
